The campaign covered roughly 220,000 compounds. About 16,000 (7.3%) were called active. This list was built around the results that the source calls inconclusive (neither active nor inactive); the mix of calls is not that of the screen. Calls follow the shape of the dose curve; as a rule, active = well fitted inhibition curve with a large enough effect (not every such curve was filed as active); inconclusive = small, poorly fitted or top-dose-only effect, or another doubt; inactive = no such curve, though single readings can be large or run the other way. Potencies of inconclusive entries are doubtful fits and often do not repeat.
target: Aldehyde dehydrogenase 1A1 (Homo sapiens) (UniProt P00352); experiment: qHTS Assay for Inhibitors of Aldehyde Dehydrogenase 1 (ALDH1A1); conditions: Purified ALDH1A1, NADH fluorescence, propionaldehyde substrate; series mostly up to 75.3 µM; activity, negative = inhibition: at the top concentration;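 as to activity, negative = inhibition: plate controls were no enzyme wells and a reference inhibitor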
Potency is read from the fitted curve at half-maximal effect; tags tell the direction and shape of the fitted curve.

Sequence of UniProt P00352 (P00352 whole entry, looked up): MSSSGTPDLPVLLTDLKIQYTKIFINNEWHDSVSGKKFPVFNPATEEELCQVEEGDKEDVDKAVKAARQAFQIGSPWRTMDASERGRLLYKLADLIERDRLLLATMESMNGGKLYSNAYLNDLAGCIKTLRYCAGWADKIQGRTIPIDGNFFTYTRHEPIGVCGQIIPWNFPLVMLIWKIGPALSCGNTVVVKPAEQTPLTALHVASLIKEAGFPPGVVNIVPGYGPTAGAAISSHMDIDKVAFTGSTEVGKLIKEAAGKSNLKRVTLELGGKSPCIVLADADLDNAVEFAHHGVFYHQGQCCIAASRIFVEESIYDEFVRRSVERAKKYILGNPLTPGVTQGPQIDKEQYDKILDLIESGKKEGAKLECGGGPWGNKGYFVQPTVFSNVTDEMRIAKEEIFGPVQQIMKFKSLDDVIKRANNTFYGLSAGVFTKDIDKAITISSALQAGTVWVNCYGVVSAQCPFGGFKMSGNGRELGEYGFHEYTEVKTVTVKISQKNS

activity, negative = inhibition, inactive:
CCCCc1nc2ccn(CC(=O)N(C)C)c(=O)c2n1Cc1ccc(-c2ccccc2-c2nn[nH]n2)cc1 -7.85%
COC(=O)CN(C#N)c1nc(NC(C)C)nc(NC(C)C)n1 7.82%
CC(=O)N1CCN(c2ccc(NC(=O)/C=C/c3ccccc3)cc2)CC1 -6.07%
O=C(Nc1ccc(F)cc1F)N1CCC(c2nc3ccccc3o2)CC1 0.473%
C[n+]1cccc(CNC(=O)/C=N/O)c1 0.759%
Cc1ccc(Cn2ccc(NC(=O)c3cc(-c4ccccc4)on3)n2)cc1 -8.96%
CC(=O)c1cc(C)ccc1OC(=O)CCN1C(=O)C2C3c4ccccc4C(c4ccccc43)C2C1=O (stereo not drawn) -0.918%
Cc1ccc(NC(=O)CNC(=O)c2cccs2)cc1S(=O)(=O)Nc1ccc(Cl)cc1 -2.85%
CN(c1ccc(O)cc1)c1nc(-c2cccs2)cs1 6.79%
COc1ccc(N2C(=O)C(Cl)=C(Nc3ccccc3OC)C2=O)cc1 -1.83%
O=C1[C@@H]2[C@@H]3C[C@@H]([C@H]4ON=C(c5ccc(OCc6ccccc6)cc5)[C@@H]34)[C@@H]2C(=O)N1c1ccc2c(c1)OCO2 2.22%
Clc1ccccc1CONc1ncnc2nonc12 -4.11%
CC1=C(C(=O)N(C)C)C(c2cccc(Cl)c2)NC(=O)N1 (stereo not drawn) 1.51%
CCOc1ccc(C/C(N)=N/n2cnnc2)cc1 2.83%
Brc1ccccc1-c1cnco1 11.3%
CCN(CC)CCN1C(=O)C(=O)/C(=C(/O)c2ccc(OC)cc2)C1c1ccco1 (stereo not drawn) -11.8%
Cc1ccccc1-c1cc(N2CCNCC2)ncn1 -0.0349%
CCC(C(=O)Nc1nc(C)c(C(=O)OC)s1)c1ccccc1 (stereo not drawn) -4.33%

Potency, inconclusive:
O=C(CN1CCN(S(=O)(=O)c2ccc(Cl)cc2)CC1)Nc1ccc2c(c1)OCCO2 37.7 µM [inhibitor, single point]
Cc1nn(Cc2cccc(C(=O)N3N=C(C(F)F)CC3(O)C(F)F)c2)c(C)c1[N+](=O)[O-] (stereo not drawn) 39.8 µM [inhibitor, single point]
COC(=O)c1cc(NS(=O)(=O)c2ccc(OC)c(OC)c2)ccc1Cl 12.6 µM [inhibitor, partial curve]
COc1cc2nc(N(C)CCCNC(=O)[C@@H]3CCCO3)nc(N)c2cc1OC 11.2 µM [inhibitor, partial curve]
Cc1cnn(C(=S)NCc2ccco2)c1 28.2 µM [inhibitor, single point]
CCOC(=O)C1(CCCc2ccccc2)CCN(C(=O)C2CCCO2)CC1 (stereo not drawn) 20 µM [inhibitor, partial curve]
Cc1ccc(S(=O)(=O)N(Cc2cc3cccc(C)c3[nH]c2=O)c2ccccc2)cc1 35.5 µM [inhibitor, single point]
Cc1ccccc1N1CCN(c2ccc(NC(=O)C3CCCCC3C(=O)O)cc2)CC1 (stereo not drawn) 25.1 µM [inhibitor, partial curve]
Cc1nc2ccccc2c2oc(C(=O)NCc3ccccn3)cc12 39.8 µM [inhibitor, single point]
N#Cc1c(SCc2ccc(Cl)cc2)sc(C(=O)c2ccccc2)c1N 25.1 µM [inhibitor, partial curve]
CCOC(=O)c1oc2cccc(OCC(O)CNC(C)C)c2c1C (stereo not drawn) 22.4 µM [inhibitor, partial curve]
O=[N+]([O-])c1ccc(-c2nc(-c3ccc(F)cc3)c(-c3ccncc3)[nH]2)cc1 35.5 µM [inhibitor, single point]
Cc1cccc(S(=O)(=O)C(C#N)c2nc3ccccc3nc2N2CCCC2)c1 (stereo not drawn) 35.5 µM [inhibitor, single point]
CCN(CC)S(=O)(=O)c1ccc(OC)c(NC(=O)c2cc([N+](=O)[O-])ccc2Cl)c1 3.55 µM [inhibitor, full curve]
CN(C)c1ncc2nc(-c3cc(F)cc(F)c3)c(=O)n(C3CC3)c2n1 35.5 µM [inhibitor, single point]
COC(=O)c1cccnc1 0.0251 µM [inhibitor, full curve]
CNNC(=S)Nc1cccc(SC)c1 39.8 µM [inhibitor, single point]
O=C(/C=C/Nc1ccc(Br)cc1F)c1ccccc1 44.7 µM [inhibitor, single point]
COc1ccc(NC(=O)N2c3ccccc3C(C)=CC2(C)C)cc1 25.1 µM [inhibitor, partial curve, poor fit]
Cc1nc2nc(-c3ccccc3)[nH]n2c(=O)c1Cc1ccccc1 39.8 µM [inhibitor, single point]
CCc1cc(=O)oc2c(CN3CCCC3)c(O)c(Cl)cc12 3.55 µM [inhibitor, full curve]
N#Cc1ccc(-c2ccc(OCC(O)CN3CCOCC3)cc2)cc1 (stereo not drawn) 35.5 µM [inhibitor, single point]
COc1cccc(C2CC(c3cccc(NS(C)(=O)=O)c3)=NN2C(=O)c2ccccc2)c1OC (stereo not drawn) 37.7 µM [inhibitor, single point]
NS(=O)(=O)c1ccc(CCNC(=O)CN2CCN(c3ccccc3O)CC2)cc1 29.9 µM [inhibitor, single point]
C/C(=C1/SC(=S)N(CCC(=O)O)C1=O)c1ccc(O)cc1 39.8 µM [inhibitor, single point]
COc1ccc2nc(N3C(=O)CC(Cc4ccc(C)cc4)C3=O)sc2c1 (stereo not drawn) 28.2 µM [inhibitor, single point]
COc1cc(C(=O)Oc2cccc(C=O)c2)cc(OC)c1OC 39.8 µM [inhibitor, single point]
O=S(=O)(O)c1nnc2sc3ccccc3n12 39.8 µM [inhibitor, single point]
COc1ccc2oc(=O)c(C(=O)NCc3ccc4c(c3)OCO4)cc2c1 23.8 µM [inhibitor, partial curve]
CCN(Cc1cc(=O)n2ccsc2n1)c1cccc2ccccc12 39.8 µM [inhibitor, single point]
Cc1cc(C)nc(SCc2cc(=O)c(OC(=O)c3ccc(S(=O)(=O)N4CCCC4)cc3)co2)n1 39.8 µM [inhibitor, single point]
Cc1ccc(S(=O)(=O)Cn2nnnc2C(CC(C)C)N2CCN(C(=O)c3ccco3)CC2)cc1 (stereo not drawn) 17.8 µM [inhibitor, partial curve]
c1ccc(-c2nn3c(C4CCCCC4)nnc3s2)nc1 22.4 µM [inhibitor, single point]
COc1ccc2c(c1)C(=O)N(c1ccccc1)C(=O)C2 35.5 µM [inhibitor, single point]
Cc1nc2oc3c(NCc4ccccn4)ncnc3c2c2c1COC(C)(C)C2 35.5 µM [inhibitor, partial curve]
CC(C)CNC(=S)N1CCN(C(c2ccccc2)c2ccccc2)CC1 31.6 µM [inhibitor, single point]
c1ccc(Sc2nc(N3CCCCC3)nc(N3CCCCC3)n2)nc1 7.08 µM [inhibitor, partial curve]
COc1ccc(-c2ocnc2C(=O)N2CCN(C(c3ccccc3)c3ccccc3)CC2)cc1 22.4 µM [inhibitor, partial curve]
O=C(Nc1ccn(-c2ccccc2)n1)c1ccccc1Br 37.7 µM [inhibitor, single point]
C/C(=N\NC(=O)CC#N)c1cc2ccc(O)cc2oc1=O 31.6 µM [inhibitor, partial curve]
Fc1ccc2nc(Nc3nc4c(F)cc(F)cc4s3)sc2c1 37.7 µM [inhibitor, single point]
Cc1cccc(S(=O)(=O)NCCC(=O)OCC(=O)Nc2ccc(C#N)cc2)c1 20 µM [inhibitor, partial curve]
CCOC(=O)Nc1sc(NS(=O)(=O)c2ccccc2)nc1C 35.5 µM [inhibitor, single point]
C/C(=N\NC(=O)CSCc1ccccc1Cl)c1cccc(NC(=O)c2ccccc2)c1 22.4 µM [inhibitor, single point]
CC(=O)N1CCN(c2ccc(NC(=O)c3ccc(Br)o3)cc2Cl)CC1 35.5 µM [inhibitor, single point]

Potency, active:
Cn1c(=O)c2c(nc(NCc3ccc4c(c3)OCO4)n2Cc2ccccc2F)n(C)c1=O 12.6 µM
CCN(CC)c1ccc2oc(=O)c(C)nc2c1 1 µM
COc1ccccc1C(=O)CSc1cccc[n+]1[O-] 14.1 µM
Cc1ccc(-n2c(N)c(C(=O)N3CCOCC3)sc2=S)c(C)c1 10 µM
O=C(O)CCc1ccc(-c2cccs2)o1 1 µM
CCOC(=O)N(CC)OC(=O)Nc1ccc(Cl)cc1 4.47 µM
Fc1cccc(NC(=S)NNc2c3ccccc3nc3ccccc23)c1 3.16 µM
C=CCNC(=O)CSc1nnc(-c2ccccn2)n1Cc1ccccc1 35.5 µM
Cc1ccc(Cl)cc1N1CCN(C(=O)Cn2ccc3ccccc3c2=O)CC1 20 µM
O=c1[nH]n(CC2COC3(CCCCC3)O2)c(=O)c2ccccc12 (stereo not drawn) 12.6 µM
